Screen size: about 44,000 compounds; about 340 (0.77%) were called active. About 5% were inconclusive and are not listed. Calls follow the shape of the dose curve; as a rule, active = well fitted inhibition curve with a large enough effect; inconclusive = small, poorly fitted or top-dose-only effect; inactive = flat fitted curve, though single readings scatter. This is one part of the list.
Assay: Acumen qHTS Assay for Inhibitors of the mTORC1 Signaling Pathway in MEF (Tsc2-/-, p53-/-) Cells: Sytravon;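 also: plate controls were DMSO for no effect and rapamycin for full effect; nearly all actives have a fitted effect of over 50% in size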
Conditions: phospho-rpS6 immunofluorescence/PI, 24 h; series mostly up to 38.3 µM; activity change, negative = inhibition: at the top concentration
Procedure, shortened: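 Immunofluorescence of rpS6 phosphorylation in Tsc2-/-, p53-/- MEFs after 24 h compound exposure, normalized to propidium iodide signal. Activity is expressed as % positive cells, thresholded with 7.5 nM rapamycin.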

Activity change, negative = inhibition, inactive:
CCc1ccc(S(=O)(=O)c2nnn3c2nc(N2CCC(C(N)=O)CC2)c2cc(Cl)ccc23)cc1 1.5%
Cc1c(C(=O)Nc2cccc(C#N)c2)sc2nc3n(c(=O)c12)CCCCC3 7.42%
CC1CN(C(=O)N2CCC(C(=O)NCc3ccco3)CC2)c2ccccc2O1 (stereo unspecified) 4.95%
CC1CCN(c2nc3ccccc3nc2C(F)(F)F)CC1 -3.66%
Cc1ccc2ncc(C(=O)c3ccc(C)c(C)c3)c(S(=O)(=O)c3ccccc3)c2c1 -5.8%
CCOc1cccc(C2c3c(oc4ccc(F)cc4c3=O)C(=O)N2c2cc(C)ccn2)c1 (stereo unspecified) -1.1%
O=C(Nc1nc2ccccc2n1CCOc1ccccc1Cl)c1ccccc1 -3.56%
Cc1cccc(CN2C(=O)c3ccccc3Sc3ccc(C(=O)NCCCN4CCOCC4)cc32)c1 9.73%
CCN(CC)S(=O)(=O)c1nnc(NC(=O)c2ccc(C)cc2)s1 -9.16%
CC(=O)N1CCc2cc(S(=O)(=O)NC(Cc3ccccc3)C(=O)Nc3cc(C)cc(C)c3)ccc21 (stereo unspecified) -0.107%
COc1ccccc1N1CCN(Cc2nc(-c3cc(OC)c(OC)c(OC)c3)no2)CC1 -13.1%
CC1CCCCN1CCCNC(=O)Cn1ncc2c3ccccc3n(Cc3ccccc3)c2c1=O (stereo unspecified) -5.97%
Cc1ccc(Cl)cc1N1CCN(C(=O)CCc2nnc3n(C)c(=O)c4ccccc4n23)CC1 1.09%
Cc1ccc(NC(=O)CSc2nc3n[nH]c(C)c3c(=N)n2-c2ccccc2C)cc1C -4.48%
CCN(Cc1ccccc1)C(=O)c1cn(-c2cccc(OC)c2)c(=O)c2ccccc12 -23.5%
COc1ccc(CCN2C(=O)CN(C3CCCCCC3)C(=O)C2c2ccc(Cl)cc2)cc1OC (stereo unspecified) 3.44%
O=C(Cn1ncc2c3ccccc3n(Cc3ccccc3)c2c1=O)NCCCN1CCCCC1 -0.0653%
COc1ccc(-c2cc(C(=O)Oc3ccc(C#N)cc3)no2)cc1 -0.875%
COc1ccc(CNC(=O)C(CC(C)C)NS(=O)(=O)c2ccc3c(c2)CCN3C(C)=O)cc1 (stereo unspecified) 0.39%
O=S1(=O)c2ccccc2N(Cc2ccc(F)cc2)c2ccccc21 -0.464%
O=C(NCCOCCn1c(=O)oc2ccccc21)Nc1ccc(F)cc1F -13.3%
COc1ccc(Nc2nnc(-n3nc(C)cc3C)c3ccccc23)cc1 -15.3%
COc1ccc(CNC(=O)c2cc3c(=O)n(Cc4ccc(OC)cc4)ccc3nc2C)cc1 0.0892%
COc1cc(Br)cc2cc(S(=O)(=O)c3ccccc3)c(=O)oc12 -2.1%
Cc1cccc(NC(=O)CSc2nc3ccc(NC(=O)CCc4ccccc4)cc3s2)c1 -6.74%
Cc1ccc(-c2nc(CS(=O)(=O)CC(=O)N3CCN(c4ccccc4)CC3)c(C)o2)cc1 -0.809%

From PubChem BioAssay AID493208 (National Center for Advancing Translational Sciences (NCATS), 2011)
